Hit rate of the full screen: of about 270,000 compounds, about 5,800 (2.1%) were called active. The shares of active, inactive and inconclusive entries below differ from those in the screen. Calls come from the whole dose curve; as a rule, active = well fitted inhibition curve with a large enough effect; inconclusive = small, poorly fitted or top-dose-only effect; inactive = flat fitted curve, though single readings scatter. Where the call is inconclusive, the potency comes from a doubtful curve fit.
Target: Microtubule-associated protein tau (Homo sapiens) (UniProt P10636)
Chain of UniProt P10636 (P10636 whole entry, looked up): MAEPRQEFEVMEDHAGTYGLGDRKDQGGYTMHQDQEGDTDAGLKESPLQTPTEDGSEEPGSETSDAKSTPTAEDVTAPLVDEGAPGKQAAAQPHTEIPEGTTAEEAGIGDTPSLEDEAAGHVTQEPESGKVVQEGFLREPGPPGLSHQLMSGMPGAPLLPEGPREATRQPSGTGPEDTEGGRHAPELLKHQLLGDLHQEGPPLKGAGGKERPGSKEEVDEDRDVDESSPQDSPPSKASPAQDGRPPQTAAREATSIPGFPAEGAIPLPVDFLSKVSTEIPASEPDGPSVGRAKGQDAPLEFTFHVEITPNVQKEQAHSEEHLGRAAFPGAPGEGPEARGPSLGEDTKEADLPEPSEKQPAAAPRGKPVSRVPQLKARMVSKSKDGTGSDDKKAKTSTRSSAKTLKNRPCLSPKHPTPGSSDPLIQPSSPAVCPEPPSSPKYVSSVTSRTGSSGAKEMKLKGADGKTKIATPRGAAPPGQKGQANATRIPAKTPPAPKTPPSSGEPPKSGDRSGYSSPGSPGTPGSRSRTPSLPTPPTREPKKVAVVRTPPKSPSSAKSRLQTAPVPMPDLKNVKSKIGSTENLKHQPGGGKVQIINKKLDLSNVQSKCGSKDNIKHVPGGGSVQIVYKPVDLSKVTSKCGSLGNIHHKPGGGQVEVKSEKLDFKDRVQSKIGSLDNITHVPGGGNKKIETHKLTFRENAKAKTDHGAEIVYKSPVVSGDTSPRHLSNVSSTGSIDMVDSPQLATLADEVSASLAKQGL
Test: qHTS for Inhibitors of Tau Fibril Formation, Thioflavin T Binding; note: nearly all actives have a fitted effect of over 55% in size
Conditions: recombinant tau K18 P301L, heparin-induced fibrillization, ThT fluorescence; series mostly up to 57.4 µM
Summary of the method: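 ThT emission at 510 nm, taken 1 hr after adding 30 uM dye, quantifies aggregates formed when 20 uM heparin acts on human tau K18 P301L for 6 hr at 37 C.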
% is set by controls: 0 for no effect and ±100 for the full control effect; potency is the fitted concentration of half-maximal effect; tags give direction and shape of the fitted curve.

Compound | Potency | activity, negative = inhibition
CCOC(=O)c1sc(=S)n(C)c1NC(=O)c1ccccc1C | inconclusive: 17.8 µM [inhibitor, single point] | –
COc1cc(Nc2c3c(nc4ccccc24)CCCC3)cc(OC)c1OC | inconclusive: 39.8 µM [inhibitor, single point] | –
NCCc1nnc(SCc2c(Cl)cccc2Cl)o1 | inactive | –
O=C(Nc1ccc(-c2nc3ccccc3[nH]2)cc1)c1ccc2c(c1)OCO2 | inconclusive: 8.91 µM [activator, partial curve] | –
Clc1ccc(-c2nc3n(n2)Cc2ccccc2-3)cc1 | inactive | –
O=C(CCCOc1ccc(Cl)cc1Cl)N/N=C/c1ccccc1 | inactive | –
Cc1ccc2nc(/N=C(\N)NC(=O)NC3CCCCC3)nc(C)c2c1 | inconclusive: 35.5 µM [inhibitor, partial curve, poor fit] | –
CC1(C)CC(=O)C(=Cc2cn(-c3ccccc3)nc2-c2ccc(Cl)cc2)C(=O)C1 | inactive | –
CC1CN(C(=S)SCC(=O)c2ccc(Cl)cc2)CC(C)O1 (stereo unspecified) | inactive | –
CCc1ccc(Oc2ncnc(N)c2[N+](=O)[O-])cc1 | inconclusive: 39.8 µM [inhibitor, single point] | –
Cc1ccc(C(=O)NNC(=O)c2cc3cc4ccccc4nc3s2)cc1 | inconclusive: 2.51 µM [inhibitor, full curve] | –
CCCCn1c(SCC(=O)N2CCC(C)CC2)nc2ccsc2c1=O | inactive | –
[O-]/[N+](=C\c1ccc(OC(F)F)cc1)c1ccccc1 | inconclusive: 39.8 µM [inhibitor, single point] | –
Cc1[nH]c2ccccc2c1C(C#N)(C#N)C1C(=O)c2ccccc2C1=O | active: 6.31 µM | –
Cc1c(Cc2ccccc2)c(=O)oc2cc(O)cc(O)c12 | inconclusive: 15.8 µM [inhibitor, partial curve] | –
CC1(C)CC(=O)CC2(C1)NCC(c1ccccc1Cl)c1c2[nH]c2ccccc12 (stereo unspecified) | inconclusive: 35.5 µM [inhibitor, partial curve] | –
CC(=O)c1ccc(NC(=O)C2(c3ccccc3)CC2(Cl)Cl)cc1 (stereo unspecified) | inconclusive: 8.91 µM [inhibitor, partial curve] | –
O=C(O)c1cccc(N2C(=O)C3CC=CCC3C2=O)c1 (stereo unspecified) | inactive | –
Cc1ccc(N2CC(C(=O)Nc3ccc(S(=O)(=O)Nc4nccc(C)n4)cc3)CC2=O)cc1 (stereo unspecified) | inactive | –
O=C(Oc1ccc2c(c1)OCO2)c1ccc(F)cc1Cl | inactive | –
CC(C)c1ccc(NC(=O)CC2Oc3ccccc3NC2=O)cc1 (stereo unspecified) | inconclusive: 39.8 µM [inhibitor, single point] | –
Cc1cc(OCC(=O)N(Cc2ccc(N(C)C)cc2)C2CCS(=O)(=O)C2)cc(C)c1Cl (stereo unspecified) | inconclusive: 25.1 µM [inhibitor, single point] | –
Cc1cc(C(=O)CSc2nc(N)cc(N)n2)c(C)n1-c1cccc(C(F)(F)F)c1 | inconclusive: 10 µM [inhibitor, partial curve] | –
COc1ccc(NC(=O)Cn2c(=O)n(-c3ccc(OC)cc3)c(=O)c3ccc(C(=O)NCc4ccc(C)cc4)cc32)cc1 | inactive | –

Compound | Potency | activity, negative = inhibition
CCCn1c(SCC(=O)Nc2nc3ccccc3s2)nc2c1c(=O)n(C)c(=O)n2C | inactive | –
Clc1ccccc1-c1ccc(/C=N/Nc2nncc(-c3ccccc3)n2)o1 | active: 2 µM | –
COC(=O)C(C(=O)OC)=C(/C=C/C=C/N(C)C)N(C)C | inconclusive: 35.5 µM [inhibitor, single point] | –
COc1cc(OC)c(NC(=O)Cc2ccc(-n3c(C)nc4cccnc43)cc2)cc1Cl | inactive | –
CCC(C)(C)c1ccc(OCCCC[n+]2ccccc2)c(C(C)(C)CC)c1 | inconclusive: 31.6 µM [inhibitor, single point] | –
COc1cc2nc(/C=C/c3ccc(N(C)C)cc3)sc2cc1SC | inconclusive: 10 µM [activator, partial curve] | –
Nc1nc(CN2CCN(c3cccc(Cl)c3)CC2)nc(N2CCCc3ccccc32)n1 | inconclusive: 17.8 µM [inhibitor, partial curve] | –
CCOC(=O)C1CCCN(C(=O)Cn2ncn3c(cc4sc(CC)cc43)c2=O)C1 (stereo unspecified) | inactive | –
CCCCCC(=O)NNC(=S)NC(=O)c1ccc([N+](=O)[O-])cc1 | inconclusive: 12.6 µM [inhibitor, single point] | –
O=C(O)c1ccccc1C(=O)NNc1ccc(F)cc1F | inconclusive: 39.8 µM [inhibitor, single point] | –
O=C(/C=C/c1ccc(Cl)c([N+](=O)[O-])c1)c1cccnc1 | inconclusive: 8.91 µM [inhibitor, partial curve] | –
CN(C)[C@@H]1C(=O)C(C(=O)NCN2CCCC2)=C(O)[C@@]2(O)C(=O)C3=C(O)c4c(O)cccc4[C@@](C)(O)C3CC12 (stereo partly specified) | active: 14.1 µM | –
COCCCn1c(SCC(=O)Nc2ccccc2OC)nc2c(sc3ccccc32)c1=O | inconclusive: 25.1 µM [inhibitor, single point] | –
COc1cc2cccc(OC)c(=O)c2c(O)c1OC | inconclusive: 25.1 µM [inhibitor, partial curve] | –
COc1ccc2cc1Oc1ccc(cc1)CC1c3c(cc(OC)c4c3Oc3cc5c(cc3O4)CCNC5C2)CCN1C (stereo unspecified) | inconclusive: 22.4 µM [inhibitor, single point] | –
CCOc1ccc(CCNC(=O)c2ccc(-c3nc(COc4ccc(C)cc4)c(C)o3)cc2)cc1 | inactive | –
CCOC(=O)c1cc(-c2ccc(N3CCOCC3)cc2)nn1-c1ccccc1C(=O)O | inconclusive: 44.7 µM [inhibitor, single point] | –
Cc1oc(-c2ccc(Cl)cc2)cc1C(=O)NC1CCN(Cc2ccccc2)CC1 | inactive | –
O=C(O)c1ccccc1N=Cc1c(O)n(-c2nccs2)c(=O)c2ccccc12 | inconclusive: 22.4 µM [inhibitor, single point] | –
Cc1nnc(N/N=C/c2ccc(-c3ccccc3F)o2)n1N | active: 12.6 µM | –
CCCOc1ccc(-c2nc(N3CCC(C)CC3)c3ccccc3n2)cc1 | inconclusive: 1.41 µM [inhibitor, full curve] | –
CCCn1c2ccccc2c2cnn(CC(=O)N(Cc3ccccc3)C(C)C)c(=O)c21 | inactive | –
Cc1ccc(C2C3CN(C(C)C)CC=C3C(C#N)=C(N)C2(C#N)C#N)cc1 (stereo unspecified) | inconclusive: 17.8 µM [inhibitor, partial curve] | –
Cc1cccc(N2CCN(C(=O)C3CCN(S(=O)(=O)c4c(C)noc4C)CC3)CC2)c1C | inconclusive: 20 µM [inhibitor, partial curve] | –

Compound | Potency | activity, negative = inhibition
CCc1ccc2c(c1)CCCN2C(=O)c1ccccc1C(=O)O | inconclusive: 15.8 µM [inhibitor, partial curve] | –
COC(=O)c1c(C)[nH]c(/C=N/Nc2ccccc2)c1C | inconclusive: 12.6 µM [inhibitor, partial curve] | –
Cc1cccc(OCc2nnc(N)s2)c1 | inactive | –
CC(C)c1ccc(-n2cccc2/C=C2/C(=N)N3C=CSC3=NC2=O)cc1 | inconclusive: 11.2 µM [inhibitor, partial curve, poor fit] | –
COc1ccc(CCNC(=O)CCc2cn(Cc3ccc(C)cc3)c3ccccc23)c(OC)c1OC | inactive | –
Cc1nc(NC(=O)c2ccccc2)sc1-c1csc(Nc2ccc(Cl)cc2)n1 | active: 5.01 µM | –
COc1ccc(OC2C=CC(c3ccccc3)OC2CO)c(C(C)(C)C)c1 (stereo unspecified) | – | inactive: -9.92% [at 11.5 µM]
COc1ccc(-c2noc(N3CCC(C(=O)N(C)c4cc(Cl)ccc4OC)CC3)n2)cc1 | inactive | –
NS(=O)(=O)c1ccc(N/N=C/c2ccc(O)c(O)c2O)c([N+](=O)[O-])c1 | active: 2 µM | –
CCN(CC)c1ccc(NC(=O)Nc2ccccc2C(F)(F)F)cc1 | inactive | –
CCn1c(=NC(=O)c2cccc(N3C(=O)CCC3=O)c2)sc2c(C)ccc(OC)c21 | inconclusive: 14.1 µM [inhibitor, partial curve, poor fit] | –
Cc1ccc(C)c(N2CCN(C(=O)c3cc(S(=O)(=O)N4CCC(C)CC4)cn3C)CC2)c1 | inactive | –
COc1ccccc1C(=O)c1cn(CC(=O)Nc2ccccc2F)c2nc(C)ccc2c1=O | inconclusive: 39.8 µM [inhibitor, single point] | –
CCOc1ccc(C2NC(=O)C(C#N)=C(S)N2c2cccc(C)c2)cc1OC (stereo unspecified) | active: 31.6 µM | –
COc1ccc2c(c1)C1=NN(/C(C)=C/C(C)=O)C(c3cccc(F)c3)C1CC2 (stereo unspecified) | inconclusive: 17.8 µM [inhibitor, partial curve] | –
Cc1ccc2oc(C(=O)Nc3cccc(-c4nc5ccccc5s4)c3)c(C)c2c1 | inconclusive: 1.26 µM [inhibitor, full curve] | –
CCOC(=O)CN=C1CC(C)(C)CC2=C1Sc1ncnc(N(C)C)c1N2 | active: 15.8 µM | –
N#Cc1c(/N=C/c2ccco2)sc2c1CCCCC2 | active: 4.47 µM | –
c1ccc(N2CCOCCOCCOCCOCCOCC2)cc1 | inactive | –
COc1ccc(-n2ccn(CC(=O)NCc3ccc(C)cc3)c(=O)c2=O)cc1OC | inconclusive: 11.2 µM [inhibitor, partial curve] | –
COc1ccc2c(-c3ccccc3)cc(SC(C)C(N)=O)nc2c1 (stereo unspecified) | inconclusive: 14.1 µM [inhibitor, partial curve] | –
Cc1c(C(=O)N2CCCC2)oc2c1-c1nn(CC(=O)NC(C)c3ccccc3)cc1CC2 (stereo unspecified) | inconclusive: 14.1 µM [inhibitor, single point] | –
CC(C)(C)c1cc(C(=O)N/N=C/c2ccc(O)cc2)n(-c2ccccc2)n1 | inconclusive: 31.6 µM [inhibitor, partial curve] | –
